# Several values for one entry are separate records, joined by “and”; a condition that tells them apart may be missing. Equal entries are not always repeated. Inconclusive results, whose numbers are uncertain, are shown with a selection of clear calls. For part of these data: Potencies beside an inconclusive call are fits to weak or partial responses and may not hold up. For part of these data: A note “side channel” means that the fit belongs to a control or component signal, not to the main read-out. Activity calls are given as the source filed them. Unless noted, calls follow the shape of the full dose curve.
# How the values were obtained:
# [1] = molecular target: Estrogen receptor (Homo sapiens) (UniProt P03372); assay: qHTS assay for small molecule agonists of estrogen receptor alpha signaling (AID 588514); conditions: ER-alpha-UAS-bla HEK293, beta-lactamase ratio, 18 h; activation: at 76.8 µM (top of the series), percent of full estradiol response, vehicle zero; also: nearly all actives have a fitted effect of over 70% in size; also: potency is read from the fitted curve at half-maximal effect;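 as to activation: 0% = vehicle only and 100% = reference agonist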
# Summary of the method: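 Efficacy is expressed against 20 nM 17-beta-estradiol (100%) and DMSO basal (0%); EC50 from Hill equation. Assay: beta-lactamase reporter in ER-alpha-UAS-bla HEK 293 cells, 18 h compound incubation, CCF4 detection.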
# [2] = molecular target: Androgen receptor (Homo sapiens) (UniProt P10275); assay: qHTS assay for small molecule agonists of androgen receptor signaling (AID 588515; active = well fitted curve in the direction sought with a large enough effect in the signal ratio, with a control signal flat; inconclusive = small, poorly fitted or top-dose-only effect, or effect the other way, or a change in a side signal; inactive = no such curve, though single readings can be large or run the other way; the % refers to the signal ratio; also: % is scaled to controls: 0 for no effect and ±100 for the full control effect); conditions: AR-UAS-bla HEK293, beta-lactamase ratio, agonist 16 h; activation: stronger effect = higher value
# Summary of the method: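 Stimulation of an AR-responsive β-lactamase reporter in GripTite HEK293 cells was measured after 16 h compound exposure at 37 °C, via CCF4 fluorescence after 2 h RT. EC50 from Hill fits, normalized to R1881 at 30 nM.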
# [3] = molecular target: Glucocorticoid receptor (Homo sapiens) (UniProt P04150); assay: qHTS assay for small molecule antagonists of glucocorticoid receptor signaling (AID 588533; active = well fitted inhibition curve with a large enough effect in the signal ratio, with a control signal flat, not every such curve was filed as active; inconclusive = small, poorly fitted or top-dose-only effect, or effect the other way, or a change in a side signal; the % refers to the signal ratio;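 also: cells stimulated with 2 nM dexamethasone as agonist; % is scaled to controls: 0 for no effect and ±100 for the full control effect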); conditions: HeLa MMTV-bla, GRE beta-lactamase ratio, antagonist mode, 18 h; activity change, negative = inhibition: at 76.8 µM (top of the series) unless noted
# [4] = molecular target: Peroxisome proliferator-activated receptor gamma (Homo sapiens) (UniProt P37231); assay: qHTS assay for small molecule antagonists of peroxisome proliferator-activated receptor gamma signaling (AID 588537; active = well fitted inhibition curve with a large enough effect in the signal ratio, with a control signal flat, not every such curve was filed as active; inconclusive = small, poorly fitted or top-dose-only effect, or effect the other way, or a change in a side signal; the % refers to the signal ratio; also: potency is read from the fitted curve at half-maximal effect;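 also: reporter cells co-stimulated with 50 nM rosiglitazone agonist during compound treatment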; as to activity, negative = inhibition: % of control where 0% means no effect); conditions: HEK293 PPARg-UAS-bla, beta-lactamase ratio, antagonist mode
# Summary of the method: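 Compounds are tested as concentration series for inhibition of rosiglitazone-driven (50 nM) reporter expression in GeneBLAzer PPAR-gamma-UAS-bla HEK293 cells. After 16 h at 37 C, CCF4 substrate is added for 2 h at room temperature and blue/green fluorescence is measured.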
# [5] = molecular target: Retinoic acid receptor RXR-alpha (Homo sapiens) (UniProt P19793); assay: qHTS assay for small molecule agonists of retinoid X receptor alpha signaling (AID 588544); conditions: HEK293T RXRa-UAS-bla, beta-lactamase reporter, 18 h; activation: at 76.7 µM (top of the series) unless noted;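 also: 0% = DMSO basal wells and 100% = reference agonist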
# [6] = molecular target: Thyroid hormone receptor beta (Homo sapiens) (UniProt P10828); assay: qHTS assay for small molecule antagonists of thyroid hormone receptor beta signaling (AID 588547; active = well fitted inhibition curve with a large enough effect in the signal ratio, with a control signal flat, not every such curve was filed as active; inconclusive = small, poorly fitted or top-dose-only effect, or effect the other way, or a change in a side signal; the % refers to the signal ratio; also: potency is read from the fitted curve at half-maximal effect); conditions: TR-UAS-bla HEK293, beta-lactamase ratio, antagonist mode, 18 h
# Summary of the method: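 TR-UAS-bla GripTite HEK293 cells in 2% charcoal/dextran FBS medium were preincubated 4 h at 37 C, given compound (0.59 nM to 92 uM) plus 0.4 nM T3 (final) for 18 h, then CCF4 for 2 h at RT; Hill fit gave IC50.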
# [7] = qHTS assay for small molecule agonists of the antioxidant response element (ARE) signaling pathway (AID 651741; active = well fitted activation curve with a large enough effect in the signal ratio; inconclusive = small, poorly fitted or top-dose-only effect, or effect the other way, or a change in a side signal; the % refers to the signal ratio; also: potency is read from the fitted curve at half-maximal effect; as to activation: % of control where 0% means no effect); conditions: HepG2 ARE-bla reporter, beta-lactamase FRET ratio, 16 h; activation: at 96 µM (top of the series) unless noted
# Summary of the method: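 Reporter: beta-lactamase under ARE, stably in HepG2. Exposure: 16 h, 37 C, compounds delivered in DMSO by pin tool after 5 h cell preincubation. Readout: FRET substrate fluorescence after 2 h at RT.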
# [8] = qHTS assay for small molecule agonists of the antioxidant response element (ARE) signaling pathway measured by Nrf2-dependant transcriptional activity (AID 720636; active = well fitted curve in the direction sought with a large enough effect in the repeat runs; inconclusive = weak or mixed curves; inactive = no such curve, though single readings can be large; an effect the other way counts as inactive or inconclusive; also: potency is read from the fitted curve at half-maximal effect;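 as to activation: HepG2 cells with an ARE-driven luciferase reporter; % of control where 0% means no effect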)
# Summary of the method: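 Attachment 6 hr at 37 C, then compound versus DMSO vehicle for 16 hr in ARE-luc HepG2 cells (1% dialyzed FBS); luminescence recorded 30 min after ONE-Glo addition at room temperature.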
# [9] = molecular target: Bile acid receptor (Homo sapiens) (UniProt Q96RI1); assay: qHTS assay for small molecule antagonists of farnesoid X receptor signaling (AID 588526); conditions: HEK293T FXR-UAS-bla, beta-lactamase ratio, antagonist mode; activity change, negative = inhibition: at 76.7 µM (top of the series); also: % is scaled to controls: 0 for no effect and ±100 for the full control effect
# Summary of the method: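 Concentration-response titrations were fitted to the Hill equation for half-maximal inhibition and maximal response, with data normalised to 50 uM chenodeoxycholic acid and DMSO control wells. Cells: FXR-UAS-bla HEK293T, dialyzed FBS.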
# [10] = molecular target: Glucocorticoid receptor (Homo sapiens) (UniProt P04150); assay: qHTS assay for small molecule agonists of glucocorticoid receptor signaling (AID 588532; active = well fitted curve in the direction sought with a large enough effect in the signal ratio, with a control signal flat; inconclusive = small, poorly fitted or top-dose-only effect, or a change in a side signal; inactive = no such curve, though single readings can be large or run the other way; the % refers to the signal ratio; also: potency is read from the fitted curve at half-maximal effect); conditions: HeLa MMTV-bla, beta-lactamase ratio, agonist, 18 h; activation: stronger effect = higher value, percent of dexamethasone control, DMSO zero
# Summary of the method: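 Stimulation of a glucocorticoid response element-driven beta-lactamase gene was measured in HeLa cells. Responses were scaled between DMSO basal and 0.1 uM dexamethasone, then fitted for half-maximal stimulation.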
# [11] = molecular target: Estrogen receptor (Homo sapiens) (UniProt P03372); assay: qHTS assay for small molecule antagonists of estrogen receptor alpha signaling (AID 588513; active = well fitted curve in the direction sought with a large enough effect in the signal ratio, with a control signal flat, not every such curve was filed as active; inconclusive = small, poorly fitted or top-dose-only effect, or effect the other way, or a change in a side signal; inactive = no such curve, though single readings can be large or run the other way; the % refers to the signal ratio; also: potency is read from the fitted curve at half-maximal effect); conditions: ER-alpha-UAS-bla HEK293, beta-lactamase ratio, antagonist mode; activity, negative = inhibition: at 76.9 µM (top of the series) unless noted
# Summary of the method: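 ER-alpha-UAS-bla GripTite HEK 293 cells in 2% charcoal/dextran-treated FBS medium; compounds titrated (1:2, duplicate), then stimulated with 0.5 nM 17-beta-estradiol for 18 h at 37C. CCF4 beta-lactamase fluorescence; Hill-fit IC50 and efficacy.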
# [12] = molecular target: Vitamin D3 receptor (Homo sapiens) (UniProt P11473); assay: qHTS assay for small molecule agonists of vitamin D receptor signaling (AID 588543); conditions: HEK293T VDR-UAS-bla, beta-lactamase ratio, 16 h; activation: at 76.8 µM (top of the series); also: potency is read from the fitted curve at half-maximal effect
# Summary of the method: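 VDR-UAS-bla HEK293T cells, 2000/well, 2% charcoal-stripped FBS; compound titration 16 h at 37 C; CCF4 beta-lactamase ratio read. Normalized to 50 nM 1-alpha,25-dihydroxyvitamin D3 (100%) and DMSO; Hill fit gives EC50, efficacy.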
# [13] = Cell Viability - LYMP2-005 (AID 967; active = well fitted curve in the direction sought with a large enough effect; inconclusive = small, poorly fitted or top-dose-only effect, or another doubt; inactive = no such curve, though single readings can be large; an effect the other way counts as inactive or inconclusive; also: potency is read from the fitted curve at half-maximal effect)
# Summary of the method: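 Human lymphoblastoid LYMP2-005 cells, 2,500 per well in complete medium, rested 5 h at 37C then compound-treated 24 h at 37C. Intracellular ATP read by CellTiter-Glo luminescence after 30 min at room temperature; AC50 from Hill-equation fits of concentration-response data.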
# [14] = molecular target: Peroxisome proliferator-activated receptor delta (Homo sapiens) (UniProt Q03181); assay: qHTS assay for small molecule agonists of peroxisome proliferator-activated receptor delta signaling (AID 588534); conditions: HEK293T PPARdelta-UAS-bla, beta-lactamase ratio, 18 h; activation: at 76.7 µM (top of the series); also: potency is read from the fitted curve at half-maximal effect
# Summary of the method: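 Agonist-mode qHTS; reporter cells, 5 hrs 37 C pre-incubation; compound titration, 18 hrs 37 C; CCF4 dye, 2 hrs RT; fluorescence read. EC50/efficacy via Hill fit.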
# [15] = qHTS assay for small molecule disruptors of the mitochondrial membrane potential - 1 hr assay (AID 651754); conditions: ratio change, negative = depolarisation: at 92.2 µM (top of the series); also: potency is read from the fitted curve at half-maximal effect; nearly all actives have a fitted effect of over 35% in size
# Summary of the method: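 Loss of mitochondrial potential shifts the cationic dye from red mitochondrial aggregates to green cytoplasmic monomers. Cells (HepG2) are treated with compound for 1 hr before a 30 min dye incubation at 37C.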
# [16] = molecular target: Peroxisome proliferator-activated receptor delta (Homo sapiens) (UniProt Q03181); assay: qHTS assay for small molecule antagonists of peroxisome proliferator-activated receptor delta signaling (AID 588535; active = well fitted inhibition curve with a large enough effect in the signal ratio, with a control signal flat, not every such curve was filed as active; inconclusive = small, poorly fitted or top-dose-only effect, or effect the other way, or a change in a side signal; inactive = no such curve, though single readings can be large or run the other way; the % refers to the signal ratio); conditions: HEK293T PPARd-UAS-bla, beta-lactamase FRET ratio, 18 h; activity change, negative = inhibition: at 76.7 µM (top of the series) unless noted
# Summary of the method: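 Inhibition of PPAR-delta response element-driven beta-lactamase expression is measured in HEK293T cells exposed to a compound titration series for 18 hrs at 37 C. Half-maximal inhibition comes from Hill equation fitting.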
# [17] = molecular target: Peroxisome proliferator-activated receptor gamma (Homo sapiens) (UniProt P37231); assay: qHTS assay for small molecule agonists of peroxisome proliferator-activated receptor gamma signaling (AID 588536; active = well fitted curve in the direction sought with a large enough effect in the signal ratio, with a control signal flat, not every such curve was filed as active; inconclusive = small, poorly fitted or top-dose-only effect, or effect the other way, or a change in a side signal; inactive = no such curve, though single readings can be large or run the other way; the % refers to the signal ratio; also: potency is read from the fitted curve at half-maximal effect;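 as to activation: 0% = DMSO basal wells and 100% = rosiglitazone at 2 µM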); conditions: HEK293 PPARg-UAS-bla, beta-lactamase ratio, 16 h; activation: at 76.7 µM (top of the series), percent of rosiglitazone response, DMSO as zero unless noted
# Summary of the method: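 Compound treatment: 16 h, 37 C, HEK293 GeneBLAzer cells. Detection: CCF4, 2 h RT. Values: Hill-fit EC50, efficacy as % of 2 uM rosiglitazone.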
# [18] = molecular target: Vitamin D3 receptor (Homo sapiens) (UniProt P11473); assay: qHTS assay for small molecule antagonists of vitamin D receptor signaling (AID 588541); conditions: HEK293T VDR-UAS-bla, beta-lactamase ratio, antagonist mode; activity change, negative = inhibition: at 76.7 µM (top of the series);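 also: receptor activated by calcitriol during compound treatment; % is scaled to controls: 0 for no effect and ±100 for the full control effect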
# [19] = activity, negative = inhibition: at 76.8 µM (top of the series)
# Tags tell the direction and shape of the fitted curve or compound fluorescence and quenching.
# UniProt P10828, sequence (P10828 whole entry, looked up): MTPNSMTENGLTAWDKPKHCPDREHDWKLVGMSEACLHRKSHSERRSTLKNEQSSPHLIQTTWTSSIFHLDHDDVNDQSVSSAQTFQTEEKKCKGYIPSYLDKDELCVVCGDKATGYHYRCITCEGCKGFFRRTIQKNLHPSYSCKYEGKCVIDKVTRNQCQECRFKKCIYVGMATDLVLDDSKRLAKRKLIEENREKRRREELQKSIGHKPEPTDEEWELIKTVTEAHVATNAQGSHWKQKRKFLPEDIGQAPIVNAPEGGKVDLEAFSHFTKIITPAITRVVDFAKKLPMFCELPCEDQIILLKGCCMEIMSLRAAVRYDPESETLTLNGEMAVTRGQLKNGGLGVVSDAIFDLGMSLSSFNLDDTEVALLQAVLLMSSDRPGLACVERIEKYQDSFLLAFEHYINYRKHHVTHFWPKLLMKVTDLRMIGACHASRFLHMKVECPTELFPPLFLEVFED
# UniProt P03372, sequence (P03372 whole entry, looked up): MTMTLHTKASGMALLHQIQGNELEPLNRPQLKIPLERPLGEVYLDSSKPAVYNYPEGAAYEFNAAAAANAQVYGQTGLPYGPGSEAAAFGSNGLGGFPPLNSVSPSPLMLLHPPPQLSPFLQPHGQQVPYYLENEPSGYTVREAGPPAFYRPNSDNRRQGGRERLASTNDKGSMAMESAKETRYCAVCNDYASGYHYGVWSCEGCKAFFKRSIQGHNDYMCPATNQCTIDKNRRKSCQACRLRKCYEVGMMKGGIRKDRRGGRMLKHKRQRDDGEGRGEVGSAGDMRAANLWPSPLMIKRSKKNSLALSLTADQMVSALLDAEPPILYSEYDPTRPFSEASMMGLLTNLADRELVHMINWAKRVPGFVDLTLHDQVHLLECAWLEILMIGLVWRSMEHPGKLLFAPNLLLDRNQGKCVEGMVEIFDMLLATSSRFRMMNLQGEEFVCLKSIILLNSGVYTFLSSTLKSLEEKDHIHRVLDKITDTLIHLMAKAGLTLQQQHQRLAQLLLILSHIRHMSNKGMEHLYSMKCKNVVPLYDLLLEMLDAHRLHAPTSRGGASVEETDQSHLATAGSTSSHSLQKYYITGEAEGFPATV
# UniProt Q03181, sequence (Q03181 whole entry, looked up): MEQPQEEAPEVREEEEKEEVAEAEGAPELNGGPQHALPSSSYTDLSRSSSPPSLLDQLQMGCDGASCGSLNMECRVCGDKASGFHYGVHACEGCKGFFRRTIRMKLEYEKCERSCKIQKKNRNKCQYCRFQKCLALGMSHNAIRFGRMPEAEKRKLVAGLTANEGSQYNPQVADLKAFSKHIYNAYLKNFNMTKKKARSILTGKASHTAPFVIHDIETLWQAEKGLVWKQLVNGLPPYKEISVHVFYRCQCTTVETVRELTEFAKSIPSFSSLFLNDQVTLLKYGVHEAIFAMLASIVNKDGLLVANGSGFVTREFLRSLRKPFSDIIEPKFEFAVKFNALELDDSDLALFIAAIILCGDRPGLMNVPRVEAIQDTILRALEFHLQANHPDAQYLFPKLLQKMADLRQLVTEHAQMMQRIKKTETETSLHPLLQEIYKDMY
# UniProt P10275, sequence (P10275 whole entry, looked up): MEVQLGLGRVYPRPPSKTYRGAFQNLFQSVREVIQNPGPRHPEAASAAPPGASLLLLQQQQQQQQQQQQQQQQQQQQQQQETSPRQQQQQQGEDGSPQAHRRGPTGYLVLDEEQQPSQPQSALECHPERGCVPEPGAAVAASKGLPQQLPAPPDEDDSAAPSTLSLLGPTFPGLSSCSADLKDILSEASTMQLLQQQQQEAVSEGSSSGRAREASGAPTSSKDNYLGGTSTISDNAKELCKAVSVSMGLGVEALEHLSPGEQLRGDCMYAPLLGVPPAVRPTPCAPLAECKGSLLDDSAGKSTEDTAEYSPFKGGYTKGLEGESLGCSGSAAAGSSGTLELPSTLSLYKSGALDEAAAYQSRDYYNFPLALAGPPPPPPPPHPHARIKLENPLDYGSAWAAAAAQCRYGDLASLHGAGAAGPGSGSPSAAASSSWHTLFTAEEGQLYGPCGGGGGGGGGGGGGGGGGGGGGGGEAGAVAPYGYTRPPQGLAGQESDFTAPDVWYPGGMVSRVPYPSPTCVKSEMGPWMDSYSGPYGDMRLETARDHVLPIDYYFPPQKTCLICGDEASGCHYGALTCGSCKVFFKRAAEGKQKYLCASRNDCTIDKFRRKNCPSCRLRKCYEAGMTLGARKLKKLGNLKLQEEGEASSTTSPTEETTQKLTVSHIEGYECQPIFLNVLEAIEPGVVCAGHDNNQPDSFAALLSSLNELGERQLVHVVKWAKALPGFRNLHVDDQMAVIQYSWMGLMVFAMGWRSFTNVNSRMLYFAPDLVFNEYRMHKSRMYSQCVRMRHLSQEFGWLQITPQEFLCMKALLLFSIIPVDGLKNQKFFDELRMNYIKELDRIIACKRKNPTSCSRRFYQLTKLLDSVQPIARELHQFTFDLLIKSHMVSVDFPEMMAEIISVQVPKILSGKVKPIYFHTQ
# UniProt Q96RI1, sequence (Q96RI1 whole entry, looked up): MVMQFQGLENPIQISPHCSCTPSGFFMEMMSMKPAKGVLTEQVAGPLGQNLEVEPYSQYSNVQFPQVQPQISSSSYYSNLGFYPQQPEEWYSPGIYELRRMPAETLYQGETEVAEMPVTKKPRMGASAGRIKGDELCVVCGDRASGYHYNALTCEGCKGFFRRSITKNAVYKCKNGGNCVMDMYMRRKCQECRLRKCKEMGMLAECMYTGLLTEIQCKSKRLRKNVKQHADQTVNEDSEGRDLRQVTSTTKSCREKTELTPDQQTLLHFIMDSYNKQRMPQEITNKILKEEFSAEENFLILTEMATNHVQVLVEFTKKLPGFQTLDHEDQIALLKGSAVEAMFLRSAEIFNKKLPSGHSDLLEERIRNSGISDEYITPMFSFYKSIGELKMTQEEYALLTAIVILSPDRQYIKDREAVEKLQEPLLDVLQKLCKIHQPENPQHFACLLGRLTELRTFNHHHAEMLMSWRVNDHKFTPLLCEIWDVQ
# UniProt P19793, sequence (P19793 whole entry, looked up): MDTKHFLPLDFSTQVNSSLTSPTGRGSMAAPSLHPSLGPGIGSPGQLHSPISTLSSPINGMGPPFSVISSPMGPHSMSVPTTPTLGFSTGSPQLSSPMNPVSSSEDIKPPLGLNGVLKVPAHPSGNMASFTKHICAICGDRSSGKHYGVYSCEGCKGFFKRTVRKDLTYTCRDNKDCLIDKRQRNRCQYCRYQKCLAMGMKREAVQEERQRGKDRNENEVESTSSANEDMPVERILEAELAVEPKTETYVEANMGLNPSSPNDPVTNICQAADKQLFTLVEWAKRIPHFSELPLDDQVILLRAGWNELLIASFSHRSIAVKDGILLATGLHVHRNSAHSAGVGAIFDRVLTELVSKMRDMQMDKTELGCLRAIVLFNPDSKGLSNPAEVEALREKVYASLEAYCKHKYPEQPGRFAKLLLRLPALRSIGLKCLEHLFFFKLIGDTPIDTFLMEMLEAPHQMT
smiles,measurement,setting,value
Cc1cc(Cl)ccc1OCC(=O)O,Potency,[1],"inconclusive: 25.1 µM [side channel, rising, single point]"
same,activation,[2],inactive: -0.462% and inactive: -10.2%
same,"activity change, negative = inhibition",[3],inconclusive: 30.2%
same,"activity, negative = inhibition",[4]; [19],inconclusive: 7.87%
same,activation,[5],inconclusive: -42.5%
same,activity change % (negative = inhibition),[6],inactive: 22.2% and inactive: -4.04%
same,Potency,[7],"inconclusive: 68.6 µM [activator, partial curve, poor fit] and inconclusive: 30.6 µM [activator, partial curve]"
same,Potency,[8],inactive
CCOP(=S)(S)OCC,Potency,[1],inactive
same,Potency,[9],inactive
same,Potency,[10],"inconclusive: 0.0224 µM [side channel, rising, full curve, poor fit]"
CC1(C)CON(Cc2ccccc2Cl)C1=O,"activity, negative = inhibition",[11],inconclusive: -31.1%
same,Potency,[12],"inconclusive: 0.0045 µM [side channel, falling, full curve, poor fit]"
same,activity change % (negative = inhibition),[6],inactive: 0.368%
[O-]/[N+](=N\O)c1ccccc1,Potency,[13],"inconclusive: 31.6 µM [cytotoxic, single point]"
same,Potency,[11],"inconclusive: 44.7 µM [falling, partial curve, poor fit]"
same,Potency,[14],"inconclusive: 28.2 µM [side channel, rising, single point]"
same,Potency,[6],"inconclusive: 0.141 µM [cytotoxic, side channel, full curve, poor fit]"
same,Potency,[7],"inconclusive: 10.6 µM [activator, partial curve]"
same,Potency,[15],"inconclusive: 42.2 µM [inhibitor, partial curve]"
same,Potency,[8],"inconclusive: 66.8 µM [activator, partial curve, poor fit]"
CON(C)C(=O)Nc1ccc(Cl)c(Cl)c1,"activity, negative = inhibition",[11],inconclusive: -13.3%
same,"activity change, negative = inhibition",[16],inconclusive: 33.7%
same,Potency,[17],inactive
same,"activity, negative = inhibition",[4]; [19],inconclusive: -37.3%
same,Potency,[18],inactive
same,Potency,[6],"inconclusive: 0.398 µM [side channel, falling, full curve, poor fit]"
same,Potency,[7],"inconclusive: 61.1 µM [activator, partial curve]"
same,Potency,[8],"inconclusive: 34.4 µM [activator, partial curve, poor fit]"
Clc1ccc([C@]2(Cn3cncn3)C[C@H](Br)CO2)c(Cl)c1,"activity, negative = inhibition",[11],inconclusive: -39.3%
same,Potency,[17],"inconclusive: 50.1 µM [inhibitor, single point]"
same,"activity, negative = inhibition",[4]; [19],inconclusive: -32.4%
same,"activity, negative = inhibition",[4]; at 76.8 µM (top of the series),inactive: -5.36%
same,Potency,[6],"inconclusive: 0.355 µM [cytotoxic, side channel, full curve, poor fit]"
same,Potency,[7],"inactive and inconclusive: 54.5 µM [activator, partial curve, poor fit]"
C=CCC1=C(C)[C@@H](OC(=O)[C@@H]2[C@@H](C=C(C)C)C2(C)C)CC1=O,Potency,[11],inactive
same,activation,[17],inconclusive: -18.6%
same,Potency,[4]; [19],"inconclusive: 44.7 µM [inhibitor, partial curve, poor fit]"
same,Potency,[6],"inconclusive: 44.7 µM [fluorescent, side channel, single point]"
